# Data published in PubChem BioAssay (Tox21).
# Where “and” joins values, the source holds several entries; their conditions need not be identical. Equal entries are not always repeated. The shares of active, inactive and inconclusive entries below differ from those in the screen. A potency beside an inconclusive call is a rough fit, not a confirmed value. Calls of active or inactive are those of the source. The call rests on the fitted dose curve; in most records, active means well fitted cell-killing curve with a large enough effect in the repeat runs; inconclusive means weak or mixed curves, or effect the other way; inactive means no such curve, though single readings can be large or run the other way.
# Experiment: qHTS assay to identify small molecule antagonists of the vitamin D receptor (VDR) signaling pathway - cell viability counter screen (AID 743225); further: nearly all actives have a fitted effect of over 50% in size
# Conditions: VDR-bla HEK293T viability, CellTiter-Glo luminescence, 16 h; series mostly up to 61 µM
# Method in brief: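 Cells (VDR-UAS-bla HEK 293T) are plated, rested 4 h at 37C, dosed with compound and 3 nM final 1-alpha,25-dihydroxy vitamin D3, and incubated 16 h. Viability is taken from CellTiter-Glo luminescence in the reporter wells.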
# Potency means the concentration at half of the fitted maximal effect; tags describe the fitted curve by direction and shape.
row,SMILES,Potency
1,C=C1C(CCl)(CCl)C2(Cl)C(Cl)C(Cl)C1(Cl)C2(Cl)Cl (configuration not stated),active: 48.4 µM
2,CN(C)c1ccc(SC#N)cc1,"inconclusive: 54.9 µM [cytotoxic, partial curve, poor fit]"
3,CCCCCCCCCCCCc1ccc(O)cc1,active: 17.4 µM
4,CCCCCCCCCOC(=O)c1ccc(O)cc1,active: 24.2 µM
5,CCC(C)(C)c1ccc(CC(C)CN2C[C@@H](C)O[C@@H](C)C2)cc1 (some centres not stated),"inconclusive: 3.38 µM [rising, full curve, poor fit]"
6,Oc1c(Cl)cc(Cl)c2cccnc12,"inconclusive: 26.8 µM [cytotoxic, single point]"
7,CC1=C(/C=C/C(C)=C/C=C/C(C)=C\C=O)C(C)(C)CCC1,"inconclusive: 52 µM [cytotoxic, single point]"
8,Clc1nc(C(Cl)(Cl)Cl)c(Cl)c(Cl)c1Cl,inactive
9,CCCCCCCCCCCCN1CCCC1=O,"inconclusive: 34.7 µM [cytotoxic, partial curve, poor fit]"
10,C=CC(=O)OCC(CO)(COCC(COC(=O)C=C)(COC(=O)C=C)COC(=O)C=C)COC(=O)C=C,active: 5.43 µM
11,CC(C)(C)c1ccc(O)c(O)c1,"inconclusive: 28.5 µM [cytotoxic, partial curve, poor fit] and inconclusive: 110 nM [cytotoxic, full curve, poor fit]"
12,C=CC(=O)OCCOCCOCCOCCOC(=O)C=C,"inconclusive: 55.2 µM [cytotoxic, single point] and inconclusive: 61.1 µM [cytotoxic, single point]"
